Laboratory results reported in PubChem BioAssay AID488969 (Vanderbilt High Throughput Screening Facility, 2010).
Whole data set: some 110,000 compounds, median “z-score” near -0.1, cut for the highest 2% near 2. The list shows a part of the results. Calls of active or inactive are those of the source.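 The calls were made as follows: active = z-score in the third read window above 3 or below -3; inactive = the rest.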

biological target: Metabotropic glutamate receptor 8 (Rattus norvegicus) (UniProt P70579); assay: mGluR8 Gi/Go-coupled signaling modulation – cell-based, rat, thallium flux, HTS, primary screen (AID 488969); settings: HEK293 rat mGluR8, GIRK (G protein-gated inwardly rectifying potassium channel) thallium flux, FluoZin2; at 10 µM; stronger effect = higher value; submaximal glutamate (EC20) added with thallium
Sequence of UniProt P70579 (P70579 whole entry, looked up): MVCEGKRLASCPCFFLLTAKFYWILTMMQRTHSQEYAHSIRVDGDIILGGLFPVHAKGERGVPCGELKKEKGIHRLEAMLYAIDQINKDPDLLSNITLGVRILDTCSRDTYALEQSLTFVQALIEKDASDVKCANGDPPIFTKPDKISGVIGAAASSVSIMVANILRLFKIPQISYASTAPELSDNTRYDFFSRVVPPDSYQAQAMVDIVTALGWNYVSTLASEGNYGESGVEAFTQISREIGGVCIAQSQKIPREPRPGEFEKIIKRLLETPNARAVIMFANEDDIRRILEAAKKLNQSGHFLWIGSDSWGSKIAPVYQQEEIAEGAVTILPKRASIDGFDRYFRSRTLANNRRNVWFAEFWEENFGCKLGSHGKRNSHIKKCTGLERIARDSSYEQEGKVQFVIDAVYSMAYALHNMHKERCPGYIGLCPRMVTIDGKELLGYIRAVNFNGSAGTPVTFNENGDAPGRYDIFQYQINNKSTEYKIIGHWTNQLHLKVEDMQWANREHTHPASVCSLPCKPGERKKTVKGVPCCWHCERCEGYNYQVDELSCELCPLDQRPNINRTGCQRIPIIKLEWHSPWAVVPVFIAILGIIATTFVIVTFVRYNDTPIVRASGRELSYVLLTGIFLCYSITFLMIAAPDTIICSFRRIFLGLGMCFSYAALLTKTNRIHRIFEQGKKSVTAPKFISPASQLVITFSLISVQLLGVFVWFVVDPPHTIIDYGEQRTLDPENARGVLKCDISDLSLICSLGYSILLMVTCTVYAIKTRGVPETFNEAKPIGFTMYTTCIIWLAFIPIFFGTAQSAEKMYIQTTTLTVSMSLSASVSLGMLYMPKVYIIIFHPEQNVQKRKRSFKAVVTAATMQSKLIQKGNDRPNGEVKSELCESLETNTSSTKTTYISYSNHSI

Row | SMILES | z-score
1 | COc1ccc(-c2ncccc2OC(=O)C23CC4CC(CC(C4)C2)C3)cc1OC | -0.518
2 | COc1cccc2cc3c(=O)n(-c4ccccc4)nc-3oc12 | -0.396
3 | COC(=O)c1sccc1NC(=O)Cc1ccc(OC)c(OC)c1 | -0.312
4 | Cn1c(=N)c(S(=O)(=O)c2ccc(Cl)cc2)cc2c(=O)n3ccccc3nc21 | -0.0791
5 | Cc1nc(C)c(C(=O)Nc2nc3c(C)cccc3s2)o1 | -1.08
6 | CCOC(=O)c1c(NCc2ccc3c(c2)OCO3)c2ccccc2[nH]c1=O | -0.213
7 | O=C(CCn1c(=S)[nH]c2cc3c(cc2c1=O)OCO3)N1CCc2ccccc2C1 | 0.83
8 | Cc1ccc(C(=O)NC(=S)Nc2ccccc2N2CCCC2)cc1[N+](=O)[O-] | 0.134
9 | Cc1ccc(Cl)cc1NC(=O)c1cnn2c1NC(c1ccco1)CC2C(F)(F)F (centres undefined) | -0.148
10 | COc1cccc2c1OC1(C)CC2NC(=O)N1c1cccc(C(=O)Nc2ccc3c(c2)OCCO3)c1 (centres undefined) | -0.366
11 | O=C(CN1CCN(Cc2ccc(Cl)cc2)C1=O)NCCCN1CCOCC1 | -0.145
12 | CCc1ccc(C(=O)c2oc3nc(C)cc(C)c3c2N)cc1 | -0.335
13 | Cn1c2ccccc2c(=O)c2c(=O)n(Cc3ccco3)c(COc3ccccc3)nc21 | -0.461
14 | CCOC(=O)c1c(-c2ccc(C)cc2)csc1NC(=O)/C(C#N)=C/c1ccc(O)c(OC)c1 | -0.0776
15 | COc1ccc(OC)c(C(=O)c2ccccc2)c1 | -1.47
16 | CCOC(=O)C1CCCN(Cc2c(Cl)cccc2Cl)C1 (centres undefined) | -0.186
17 | CN1CCN(C2=Cc3ccccc3Sc3cc(F)c(Cl)cc32)CC1 | -0.0621
18 | COc1ccc(C(=O)Nc2ccccc2C(=O)NCCCn2ccnc2)cc1 | -0.0976
19 | COc1cc2c(cc1NC(=O)c1ccc(C(C)(C)C)cc1)CCCC2 | -0.385
20 | CCOC(=O)c1cc2sc(C)cc2n1CC(=O)NCCc1ccccc1 | -0.751
21 | Cc1ccc(NC(=O)N2CCc3ccccc32)cc1 | 1.99
22 | CCC1(C)Cc2c(sc3nnn(CC(=O)Nc4cccc5ccccc45)c(=O)c23)CO1 (centres undefined) | -0.452
23 | c1ccc2c(CNc3ccc(CNc4ncn[nH]4)cc3)cccc2c1 | -0.0802

Row | SMILES | z-score
24 | COC(=O)Nc1nc(C)c(C(=O)N(C)C)s1 | active: 4.58
25 | O=C(CN(C1CCCCC1)C1CCCCC1)N1CCc2ccccc2C1 | -0.377
26 | Cc1sc2ncn(CC(=O)NCCCC(=O)N3CCN(c4ccccn4)CC3)c(=O)c2c1C | 0.263
27 | O=C1CC(C(F)(F)C(F)(F)C(F)(F)F)=Nc2ccccc2N1 | active: 3.4
28 | COc1ccc(S(=O)(=O)Nc2nc(C(F)(F)F)cs2)cc1 | -0.797
29 | COC(=O)Cc1c[nH]c2cccc(OCC(O)CN(Cc3ccc([N+](=O)[O-])cc3)C(C)(C)C)c12 (centres undefined) | 1.04
30 | O=c1c2ccccc2nc2n1C(CSc1ccc(F)cc1)CN2 (centres undefined) | 0.00129
31 | Cc1ccc2cccc(SCC(=O)N3CCOCC3)c2n1 | 0.307
32 | COC(=O)COc1nc(C)c(Br)c(OC)n1 | 0.126
33 | CCn1c(CCNC(=O)c2ccc(OC)cc2)nnc1SCc1ccc(Cl)c(Cl)c1 | -0.202
34 | Cc1ccc(-c2noc(CCC(=O)NCCN3CCOCC3)n2)cc1 | -0.472
35 | CCC(=O)c1ccc(OCc2ccccc2)c(OC)c1 | 0.113
36 | Cc1nc(C(=O)Nc2cc(Cl)ccc2Cl)nn1-c1cc(OC(C)C)c(Cl)cc1Cl | 0.0518
37 | CC(C)OC(=O)Cn1c(=O)oc2ccccc21 | -0.391
38 | CSc1nc2c(ccc3ccccc32)o1 | -0.263
39 | NC(=O)c1ccc(N=Cc2ccc([N+](=O)[O-])s2)cc1 | -0.21
40 | Cc1cc(=O)oc(C)c1C(=O)NCc1ccccc1 | -0.442
41 | Cc1ccc2[nH]c3c(c2c1)CCCC3C(N)=O (centres undefined) | -0.181
42 | CC1(C)NC(=O)N(CC(=O)OCC(=O)Nc2cccc(F)c2)C1=O | -0.0741
43 | Cc1cc(C2C(C#N)=C(N)OC3=C2C(=O)CCC3)c(C)s1 (centres undefined) | -1.07
44 | COC(=O)c1ccc(C(=S)N2CCOCC2)cc1 | -0.0562
45 | COc1ccc(N2CCN(C(=O)c3ccc(OCc4c(C)noc4C)c(OC)c3)CC2)cc1 | -0.119
46 | Cc1nn(Cc2ccc(C(=O)NC3CCCCC3)o2)c(C)c1Br | -0.209

Row | SMILES | z-score
47 | Cc1cc(C)nc(-n2ncc3c2CC(c2ccccc2C)CC3=O)n1 (centres undefined) | -0.318
48 | CN(C(=O)COC(=O)CCc1c[nH]c2ccccc12)C(c1ccccc1)c1ccccc1 | -0.123
49 | Cc1cc(/C=N/NC(=O)C(O)(c2ccccc2)c2ccccc2)c(C)n1-c1ccc(C(=O)O)cc1 | 0.0759
50 | CON(C)c1nc(OCCNC(=O)OCc2ccc(Cl)cc2Cl)nc(N(C)C)n1 | -0.113
51 | O=C(CSc1nc2c(c(C(F)(F)F)n1)CCc1ccccc1-2)NCc1ccccc1 | 0.257
52 | Cc1ccc(NC(=O)c2ccc(-n3cncn3)c([N+](=O)[O-])c2)cc1 | -0.224
53 | CCCCC(=O)Nc1cccc(-c2nnc(-c3ccccc3)o2)c1 | -0.705
54 | CN(/N=C/c1ccc(O)cc1O)c1nc(-c2ccccc2)cc(-c2ccccc2)n1 | 0.141
55 | COc1ccc(OCC(=O)N2CCN(C(=O)COc3ccc(Br)cc3)CC2)cc1 | -0.254
56 | COc1cc(CN(C(=S)NCC(=O)NC2CC2)C2CCCC2)cc(OC)c1OC | -0.186
57 | O=S(=O)(c1ccc(Cl)nc1)N1CCN(Cc2ccc3c(c2)OCO3)CC1 | 0.0696
58 | CC(=O)Oc1ccc2ccccc2c1C(NC(=O)Cc1ccccc1)c1ccccc1Cl (centres undefined) | -0.387
59 | COc1ccc(N2C(=O)C3CCCN3C2c2ccccc2OC)cc1 (centres undefined) | 0.306
60 | Cc1cccc(C(=O)N2CCN(Cc3ccc4c(c3)OCO4)CC2)c1 | -0.0762
61 | CC(C)NC(=O)C(=O)NC1CCCCCC1 | -0.349
62 | S=c1[nH]cc(-c2ccccc2)n1-c1ccccc1Cl | 0.447
63 | Cc1cc(C)cc(N(CC(=O)Nc2ccccc2-c2ccccc2)S(=O)(=O)c2ccccc2)c1 | -0.375
64 | CC(Oc1ccc(-c2ccccc2)c(F)c1)c1ccn(S(=O)(=O)c2ccc(F)cc2)n1 (centres undefined) | -0.221
65 | CCc1ccc2nc(SCC(=O)N3CCCCC3)c(C#N)cc2c1 | 0.28
66 | Cn1cccc1Cc1nnc(SCC(N)=O)n1-c1ccc(F)cc1 | 0.456
67 | N#C/C(=C/c1ccc(Oc2ccc([N+](=O)[O-])cn2)cc1)C(=O)N1CCOCC1 | -0.092
68 | CCOC(=O)c1[nH]c(C)c(C(=O)Nc2ccc(C)c(C)c2)c1C | -0.109
69 | CCC1Sc2ccccc2N(CC(=O)NC2CCCC2)C1=O (centres undefined) | -0.184
